In EPA's CvTdb concentration-time database:
The source gives many values for each of these; only a part stands here.

How the values were obtained:
Assay in all cases: concentration in plasma after dosing
Rat [1] = conditions: dosed: Isoeugenol, 140 mg/kg, oral, Male, F344/N
Rat [2] = conditions: dosed: Isoeugenol, 140 mg/kg, oral, Female, F344/N
Rat [3] = conditions: dosed: Isoeugenol, 140 mg/kg, oral, Male, F344/N; remark: listed apart in the source
Rat [4] = conditions: dosed: Isoeugenol, 70 mg/kg, oral, Male, F344/N
Rat [5] = conditions: dosed: Isoeugenol, 140 mg/kg, oral, Male, F344/N; remark: listed apart in the source
Rat [6] = conditions: dosed: Isoeugenol, 70 mg/kg, oral, Female, F344/N
Rat [7] = conditions: dosed: Isoeugenol, 70 mg/kg, oral, Female, F344/N; remark: listed apart in the source
Rat [8] = conditions: dosed: Isoeugenol, 140 mg/kg, oral, Male, F344/N; remark: listed apart in the source
Rat [9] = conditions: dosed: Isoeugenol, 17 mg/kg, iv, Male, F344/N
Rat [10] = conditions: dosed: Isoeugenol, 17 mg/kg, iv, Female, F344/N
Rat [11] = conditions: dosed: Isoeugenol, 17 mg/kg, iv, Female, F344/N; remark: listed apart in the source
Rat [12] = conditions: dosed: Isoeugenol, 140 mg/kg, oral, Female, F344/N; remark: listed apart in the source
Rat [13] = conditions: dosed: Isoeugenol, 140 mg/kg, oral, Male, F344/N; remark: listed apart in the source
Rat [14] = conditions: dosed: Isoeugenol, 17 mg/kg, iv, Female, F344/N; remark: listed apart in the source
Rat [15] = conditions: 6 h; dosed: Perfluorohexane-1-sulphonic acid – potassium salt; 16 mg/kg; oral; Female; F344
Rat [16] = conditions: dosed: Perfluorohexane-1-sulphonic acid – potassium salt, 16 mg/kg, oral, Female, Harlan Sprague Dawley
Rat [17] = conditions: dosed: Perfluorohexane-1-sulphonic acid – potassium salt, 4 mg/kg, Female, F344
Rat [18] = conditions: 48 h; dosed: Perfluorohexane-1-sulphonic acid – potassium salt; 16 mg/kg; oral; Female; Harlan Sprague Dawley
Rat [19] = conditions: 12 h; dosed: Perfluorohexane-1-sulphonic acid – potassium salt; 16 mg/kg; oral; Female; Harlan Sprague Dawley
Rat [20] = conditions: 528 h; dosed: Perfluorohexane-1-sulphonic acid – potassium salt; 16 mg/kg; oral; Female; F344
Rat [21] = conditions: dosed: Perfluorohexane-1-sulphonic acid – potassium salt, 4 mg/kg, Female, F344; remark: listed apart in the source
Rat [22] = conditions: dosed: Perfluorohexane-1-sulphonic acid – potassium salt, 4 mg/kg, Female, F344; remark: listed apart in the source
Rat [23] = conditions: 24 h; dosed: Perfluorohexane-1-sulphonic acid – potassium salt; 16 mg/kg; oral; Female; Harlan Sprague Dawley
Rat [24] = conditions: 3 h; dosed: Perfluorohexane-1-sulphonic acid – potassium salt; 16 mg/kg; oral; Female; F344
Rat [25] = conditions: 6 h; dosed: Perfluorohexane-1-sulphonic acid – potassium salt; 16 mg/kg; oral; Female; Harlan Sprague Dawley
Rat [26] = conditions: dosed: Perfluorohexane-1-sulphonic acid – potassium salt, 16 mg/kg, oral, Female, Harlan Sprague Dawley; remark: listed apart in the source
Rat [27] = conditions: 1200 h; dosed: Perfluorohexane-1-sulphonic acid – potassium salt; 16 mg/kg; oral; Male; Harlan Sprague Dawley
Rat [28] = conditions: dosed: Perfluorohexane-1-sulphonic acid – potassium salt, 4 mg/kg, Female, F344; remark: listed apart in the source
Rat [29] = conditions: 1 h; dosed: Fluorotelomer alcohol 8+2; 24 mg/kg; oral; Male; Harlan Sprague Dawley
Rat [30] = conditions: 192 h; dosed: Fluorotelomer alcohol 8+2; 80 mg/kg; oral; Female; Harlan Sprague Dawley
Rat [31] = conditions: dosed: Fluorotelomer alcohol 8+2, 48 mg/kg, oral, Male, Harlan Sprague Dawley
Rat [32] = conditions: dosed: Fluorotelomer alcohol 8+2, 24 mg/kg, oral, Male, Harlan Sprague Dawley
Rat [33] = conditions: dosed: Fluorotelomer alcohol 8+2, 80 mg/kg, oral, Female, Harlan Sprague Dawley
Rat [34] = conditions: dosed: Fluorotelomer alcohol 8+2, 24 mg/kg, oral, Male, Harlan Sprague Dawley; remark: listed apart in the source

C/C=C/c1ccc(O)c(OC)c1 [Isoeugenol]
Conditions	concentration in plasma [ng/mL]
Rat [1], 1.5 h	850
Rat [1], 3 h	224
Rat [2], 5 h	489
Rat [2], 10 min	1690
Rat [3], 2 h	495
Rat [3], 10 min	1620
Rat [4], 1 h	451
Rat [4], 3 h	95.3
Rat [5], 5 min	1160
Rat [5], 10 h	157
Rat [6], 5 min	1210
Rat [6], 6 h	318
Rat [7], 1 h	342
Rat [7], 5 h	367
Rat [8], 0.5 h	427
Rat [8], 10 h	55.3
Rat [9], 1.5 h	116
Rat [9], 5 min	7920
Rat [10], 0.75 h	429
Rat [10], 2.5 h	131
Rat [11], 0.75 h	517
Rat [11], 6 h	19
Rat [12], 0.5 h	1300
Rat [12], 5 h	733
Rat [13], 1 h	418
Rat [13], 8 h	337
Rat [14], 2 h	130
Rat [14], 2 min	9450

O=S(=O)([O-])C(F)(F)C(F)(F)C(F)(F)C(F)(F)C(F)(F)C(F)(F)F.[K+] [Perfluorohexane-1-sulphonic acid – potassium salt]
Conditions	concentration in plasma [ng/mL]
Rat [15]	125000
Rat [18]	43800
Rat [19]	84000
Rat [20]	34900
Rat [23]	64800
Rat [24]	117000
Rat [25]	78800
Rat [27]	20300

Conditions	concentration in plasma [ng/mL]
Rat [16], 1 h	72300
Rat [16], 528 h	35
Rat [17], 0.25 h	50100
Rat [17], 12 h	22000
Rat [17], 288 h	119
Rat [21], 0.5 h	41700
Rat [21], 24 h	15600
Rat [22], 0.25 h	41100
Rat [22], 6 h	25200
Rat [22], 864 h	6650
Rat [26], 0.25 h	39800
Rat [26], 288 h	1950
Rat [28], 0.25 h	51000
Rat [28], 12 h	22900
Rat [28], 288 h	242

O=C(O)CCC(F)(F)C(F)(F)C(F)(F)C(F)(F)C(F)(F)C(F)(F)C(F)(F)F [Fluorotelomer acid 7+3]
Conditions	concentration in plasma [ng/mL]
Rat [29]	716
Rat [30]	388

concentration in plasma [ng/mL]
Conditions	Rat [31]	Rat [32]	Rat [33]	Rat [34]
0.25 h	30.2	40.8	122	32.6
6 h	2420	–	–	–
24 h	–	709	1050	425
